Test results from patent US20230192860A1 (Bristol-Myers Squibb, published 2023).

Legend:
[1] = target: T1, monovalent hVISTA-ECD (amino acids 32-193 of SEQ ID NO: 1 with a 7xHis tail) (human, UniProt Q9H7M9 33-193); test: SPR 37C, pH 7.4 over pH 6.0
T1 construct: analyte of the SPR assays; also called huVISTA-His; human VISTA-ECD
Method: (§1) For this assay, ‘029, ‘761 and ‘767were reformatted as hIgG1f isotype and were expressed as both standard hIgG1f and in hIgG1f afucosylated formats to compare against the hIgG1.3f Fc. An SPR kinetics assay was conducted to measure koff and KD binding affinity measurements for VISTA Abs at acidic and physiological pH using a Biacore® T100 instrument (GE Healthcare). […] Antibodies were diluted to 25 nM in PBST pH 7.4, and were captured across active biosensor flow cells at 5 ul/min for 45 seconds. A concentration series of 1600 - 0.78 nM (pH 7.4) and 100 - 0.78 nM (pH 6.0) monovalent hVISTA-ECD (SEQ ID NO: 325) was prepared running buffer, and was injected over the captured antibodies at 40 ul/min to measure association and dissociation. Two 15 second injections of 10 mM glycine pH 1.5 were used to regenerate the Protein A capture surface between assay cycles. Rate constants ka (kₒₙ) and kd (koff) were derived from reference flow cell and 0 nM blank-subtracted sensorgrams, and were fit to a 1:1 binding model in Biacore® T200 Evaluation Software v.2.0. The affinity constant, KD was calculated as the ratio of rate constants koff/kₒₙ for each VISTA antibody. Ratios of koff and KD at pH 7.4 / pH 6.0 were calculated to compare off-rate and affinity improvement at acidic pH relative to physiological pH.

[2] = target: T1, monovalent hVISTA-ECD (amino acids …); test: SPR 37C, Ab on Protein A, hVISTA-ECD 100-0.78 nM, pH 6.0
Method: as §1

[3] = target: T1, monovalent hVISTA-ECD (amino acids …); test: SPR 37C, Ab on Protein A, hVISTA-ECD 1600-0.78 nM, pH 7.4
Method: as §1

T1 sequence (Q9H7M9 other isoform, or with tags, fused parts or gaps limits assumed): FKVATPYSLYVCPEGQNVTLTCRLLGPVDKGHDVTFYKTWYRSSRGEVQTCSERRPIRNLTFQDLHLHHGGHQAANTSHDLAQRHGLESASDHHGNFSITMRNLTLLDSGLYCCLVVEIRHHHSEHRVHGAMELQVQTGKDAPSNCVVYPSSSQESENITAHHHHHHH

B1: P1-069293 (P1-068761.IgG1f) (antibody)
heavy: EVQLVESGGGLVQPGKSLRLSCAASGFTLEDEAMHWVRQAPGKGLEWVSGINWNSEEIGYADSVKGRFTISRDNAKNSLYLQMNSLRTEDTALYYCAKVPGYSHGWIDAEDVWGQGTMVTVSSASTKGPSVFPLAPSSKSTSGGTAALGCLVKDYFPEPVTVSWNSGALTSGVHTFPAVLQSSGLYSLSSVVTVPSSSLGTQTYICNVNHKPSNTKVDKRV[human IgG1 Fc not written out]
light: [about 100 residues not written out][about 120 residues not written out]
notes: IgG1f; also called P1-068761 hIgG1f
Q: Which “KD ratio (7.4/6)” value [1] does the source give for B1 here?
A: 8330

Q: And the “kd ratio (7.4/6)” value [1]?
A: 28

Q: And the Kd [2]?
A: 4.2 nM

Q: What about the koff [2] of the same binder?
A: 0.0015 s⁻¹

Q: And the kon [2]?
A: 360000 M⁻¹ s⁻¹

Q: What about the Kd [3] of the same binder?
A: 35000 nM

Q: What about the koff [3] of the same binder?
A: 0.042 s⁻¹

Q: What about the kon [3] of the same binder?
A: 1200 M⁻¹ s⁻¹

B2: P1-069302 (P1-061029.IgG1f) (antibody)
heavy: EVQLVESGGGLVQPGKSLRLSCAASGFTLDDYAMHWVRQAPGKGLEWVSGINWNSANIGYADSVKGRFTISRDNAKNSLYLQMNSLRTEDTALYYCAKVPGYSGGWIDAFDVWGQGTMVTVSSASTKGPSVFPLAPSSKSTSGGTAALGCLVKDYFPEPVTVSWNSGALTSGVHTFPAVLQSSGLYSLSSVVTVPSSSLGTQTYICNVNHKPSNTKVDKRV[human IgG1 Fc not written out]
light: [about 100 residues not written out][about 120 residues not written out]
notes: IgG1f; also called P1-061029 hIgG1f
Q: Which results are given for B2?
A: KD ratio (7.4/6) [1]: 5.9; kd ratio (7.4/6) [1]: 0.9; Kd [2]: 7.1 nM; koff [2]: 0.008 s⁻¹; kon [2]: 1.1e+06 M⁻¹ s⁻¹; Kd [3]: 42 nM; koff [3]: 0.0074 s⁻¹; kon [3]: 170000 M⁻¹ s⁻¹

B3: P1-069307 (P1-061029.IgG1f afucosylated) (antibody)
heavy: EVQLVESGGGLVQPGKSLRLSCAASGFTLDDYAMHWVRQAPGKGLEWVSGINWNSANIGYADSVKGRFTISRDNAKNSLYLQMNSLRTEDTALYYCAKVPGYSGGWIDAFDVWGQGTMVTVSSASTKGPSVFPLAPSSKSTSGGTAALGCLVKDYFPEPVTVSWNSGALTSGVHTFPAVLQSSGLYSLSSVVTVPSSSLGTQTYICNVNHKPSNTKVDKRV[human IgG1 Fc not written out]
light: [about 100 residues not written out][about 120 residues not written out]
modifications: afucosylated
notes: IgG1f, afucosylated; also called P1-061029 hIgG1f afucosylated
Q: Which results are given for B3?
A: KD ratio (7.4/6) [1]: 5.9; kd ratio (7.4/6) [1]: 0.9; Kd [2]: 6.9 nM; koff [2]: 0.0078 s⁻¹; kon [2]: 1.1e+06 M⁻¹ s⁻¹; Kd [3]: 41 nM; koff [3]: 0.0072 s⁻¹; kon [3]: 170000 M⁻¹ s⁻¹

B4: P1-069312 (P1-068761.IgG1f afucosylated) (antibody)
heavy: EVQLVESGGGLVQPGKSLRLSCAASGFTLEDEAMHWVRQAPGKGLEWVSGINWNSEEIGYADSVKGRFTISRDNAKNSLYLQMNSLRTEDTALYYCAKVPGYSHGWIDAEDVWGQGTMVTVSSASTKGPSVFPLAPSSKSTSGGTAALGCLVKDYFPEPVTVSWNSGALTSGVHTFPAVLQSSGLYSLSSVVTVPSSSLGTQTYICNVNHKPSNTKVDKRV[human IgG1 Fc not written out]
light: [about 100 residues not written out][about 120 residues not written out]
modifications: afucosylated
notes: IgG1f, afucosylated; also called P1-068761 hIgG1f afucosylated
Q: B4 was tested. Which “KD ratio (7.4/6)” value [1] did it give?
A: 2000

Q: And the “kd ratio (7.4/6)” value [1]?
A: 28

Q: What about the Kd [2] of the same binder?
A: 4.1 nM

Q: And the koff [2]?
A: 0.0015 s⁻¹

Q: What about the kon [2] of the same binder?
A: 370000 M⁻¹ s⁻¹

Q: And the Kd [3]?
A: 8200 nM

Q: What about the koff [3] of the same binder?
A: 0.042 s⁻¹

Q: And the kon [3]?
A: 5100 M⁻¹ s⁻¹
